Assay results as given in patent US10889573B2, “Anthelmintic quinoline-3-carboxamide derivatives” (Bayer Animal Health GMBH, priority 2016, dated 2021).
Read-outs that look alike come from different tables or passages of the source. Some of these results come from one statement about several compounds together. At least one compound was matched to its structure with a doubt left.

Key:
[1] = tested on: Nippostrongylus brasiliensis; assay: In vitro assay 2: Nippostrongylus brasiliensis (NIPOBR), acetylcholine esterase readout
Method in brief: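 Adult worms, washed in saline with antibiotics/antimycotic, were incubated in medium with compound (DMSO stock) at 10 μg/ml (10 ppm) or 1 μg/ml (1 ppm). Acetylcholine esterase activity in a medium aliquot was measured against a negative control as the anthelmintic readout.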

Cooperia curticei = conditions: after 5 days
Haemonchus contortus = conditions: after 5 days

Row | Structure (SMILES) | activity (reduction of AChE compared to negative control) ([1]; 1 μg/ml) | activity (larval mortality) (Cooperia curticei; 4 ppm) [%] | activity (larval mortality) (Cooperia curticei; 20 ppm) [%] | activity (larval mortality) (Haemonchus contortus; 4 ppm) [%] | activity (larval mortality) (Haemonchus contortus; 20 ppm) [%] | activity (reduction of AChE compared to negative control) ([1]; 10 μg/ml)
1 | O=C(NC1CCOc2ccccc21)c1cnc2c(-c3cc(Cl)ccc3F)cccc2c1N1CCC(O)C1 (mixture of isomers) [Example 223] | higher than 80% | 90 | 90 | 80 | 90 | 
2 | O=C(NC1CCOc2ccccc21)c1cnc2c(-c3cc(F)cc(F)c3)cccc2c1N1CCC(O)C1 (mixture of isomers) [Example 257] | higher than 80% |  | 90 |  | 80 | 
3 | O=C(NC1CCOc2ccccc21)c1cnc2c(-c3cc(F)ccc3Cl)cccc2c1N1CCC(O)C1 (mixture of isomers) [Example 259] |  |  | 90 |  | 80 | 
4 | Cc1cc(Cl)c(F)c(-c2cccc3c(N4CCC(O)C4)c(C(=O)NC4CCOc5ccccc54)cnc23)c1 (mixture of isomers) [Example 275] | higher than 80% | 90 | 90 | 90 | 100 | 
5 | O=C(NC1CCc2ccccc21)c1cnc2c(-c3cc(Cl)cc(Cl)c3)cccc2c1N1CCCC1C(=O)O (mixture of isomers) [Example 292] | higher than 80% | 90 | 90 |  | 80 | 
6 | CN(C)c1c(C(=O)N[C@H]2CCOc3ccccc32)cnc2c(-c3c(F)cccc3Cl)cccc12 [Example 10] |  | 80 | 100 | 90 | 90 | 
7 | CCNc1c(C(=O)N[C@H]2CCOc3ccccc32)cnc2c(-c3cc(Cl)cc(Cl)c3)cccc12 [Example 153] |  | 100 | 100 | 100 | 100 | 
8 | CN(C)c1c(C(=O)N[C@H]2CCOc3ccccc32)cnc2c(-c3cc(Cl)ccc3F)cc(F)cc12 [Example 179] |  |  | 90 |  | 90 | 
9 | O=C(N[C@H]1CCOc2ccccc21)c1cnc2c(-c3cc(Cl)cc(Cl)c3)cccc2c1N1CC2CC(C1)O2 [Example 300] |  | 100 | 100 | 90 | 100 | 
10 | CC(C)c1c(C(=O)N[C@H]2CCOc3ccccc32)cnc2c(-c3cc(Cl)c(F)c(Cl)c3)cccc12 [Example 438] |  | 100 | 100 | 90 | 90 | 
11 | Cc1c(C(=O)N[C@H]2CCOc3ccccc32)cnc2c(-c3cc(F)ccc3Cl)cccc12 [Example 600] |  | 100 | 100 | 90 | 90 | 
12 | CN(C)c1c(C(=O)N[C@H]2CCOc3ccccc32)cnc2c(-c3cccc(Cl)c3Cl)cc(O)cc12 [Example 619] | higher than 80% |  |  |  | 80 | higher than 80%
13 | Cc1ccc(Cl)c(-c2cccc3c(C)c(C(=O)N[C@H]4CCOc5ccccc54)cnc23)c1 [Example 645] | higher than 80% |  |  | 80 | 80 | 
14 | CCc1c(C(=O)N[C@H]2CCOc3ccccc32)cnc2c(-c3cc(C)ccc3Cl)cccc12 [Example 646] | higher than 80% |  |  |  | 80 | 
15 | CN(C)c1c(C(=O)N[C@H]2CCOc3ccccc32)cnc2c(-c3cccc(Cl)c3Cl)ccc(C#N)c12 [Example 659] |  | 100 | 100 | 100 | 100 | 
